# Experimental data published in PubChem BioAssay AID588855 (National Center for Advancing Translational Sciences (NCATS), 2011).
# About 5,000 (1.2%) of roughly 410,000 compounds were called active. Inconclusive results, whose numbers are uncertain, are shown with a selection of clear calls. The call rests on the fitted dose curve; in most records, active means well fitted inhibition curve with a large enough effect; inconclusive means small, poorly fitted or top-dose-only effect; inactive means no such curve, though single readings can be large or run the other way. Potencies beside an inconclusive call are fits to weak or partial responses and may not hold up.
# Assay: qHTS for Inhibitors of TGF-b; further: nearly all actives have a fitted effect of over 65% in size
# Conditions: HepG2 CAGA-GFP TGF-b/SMAD3 reporter, GFP fluorescence, 18 h, TGF-beta stimulated, 500 pg/mL final; series mostly up to 46.1 µM; activity, negative = inhibition: at the top concentration
# In short: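 Using HEPG2 CAGA-GFP reporter cells at 1000 cells/well, we pinned test compounds, stimulated with recombinant TGF-beta (500 pg/mL final) and measured total well GFP after 18 h.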
# On the % scale 0 is the no-effect control and ±100 the full control effect; potency means the concentration at half of the fitted maximal effect; tags describe the fitted curve by direction and shape.
SMILES,Potency,"activity, negative = inhibition"
COc1ccc(OC)c(CNC(=O)CCCn2nc(C)c3c(C)n(-c4ccc(C)cc4)nc3c2=O)c1,"inconclusive: 0.562 µM [inhibitor, full curve, poor fit]",–
O=C(COc1ccc(Cl)cc1)N1CCN(c2ccc([N+](=O)[O-])c(N3CCOCC3)c2)CC1,"inconclusive: 15.8 µM [inhibitor, single point]",–
CN(C)S(=O)(=O)c1cccc(NC(=O)c2ccc3nccnc3c2)c1,"inconclusive: 3.55 µM [inhibitor, full curve]",–
Cc1ccc2cccc(NC(=O)c3ccc(Br)o3)c2n1,–,inactive: -29%
CCn1ccc2cc(S(=O)(=O)N3CCCN(C(=O)Nc4cc(Cl)ccc4C)CC3)ccc21,"inconclusive: 35.5 µM [inhibitor, single point]",–
COc1ccc(C(=O)O)cc1S(=O)(=O)Nc1ccc(N2CCCCC2)cc1,–,inactive: -6.74%
COc1ccc(CCNc2oc(-c3ccc(OC)c(OC)c3)nc2P(=O)(OC)OC)cc1OC,–,inactive: 7.05%
C=CCC[C@H](Cc1ccc(F)cc1)C(=O)OC[C@H](Cc1c[nH]c2ccccc12)NC(=O)[C@H](CC=C)CC(=O)NCCO,"inconclusive: 15.8 µM [inhibitor, single point]",–
CC1CC(c2ccccc2)n2nc(N3C(=O)c4ccccc4C3=O)nc2N1 (stereo not drawn),"inconclusive: 31.6 µM [inhibitor, single point]",–
Cc1ccc(OCc2nnc(SCc3cc(=O)[nH]c4ccccc34)n2-c2ccccc2)cc1,"inconclusive: 35.5 µM [inhibitor, single point]",–
O=C(COC(=O)c1cccc(C(F)(F)F)c1)NCc1ccccc1,–,inactive: -8.64%
COc1ccc(Cc2nnc(SCC(=O)Nc3nc(C)cs3)o2)cc1,"inconclusive: 8.91 µM [inhibitor, partial curve]",–
O=C(NCc1ccccc1)c1ccc2nc(-c3ccco3)c(-c3ccco3)nc2c1,"inconclusive: 20 µM [inhibitor, partial curve, poor fit]",–
O=C1COc2ccc3ccccc3c21,–,inactive: -0.639%
CCCCC[C@H](O)/C=C/C1C(=O)C=C[C@H]1C/C=C\CCCC(=O)OC (stereo partly drawn),active: 22.4 µM,–
COc1ccc(-c2noc(-c3ccc(NCCc4ccccc4)c([N+](=O)[O-])c3)n2)cc1OC,–,inactive: -13.8%
COc1cccc(N(C(=O)c2ccco2)c2nc(-c3sc(NC(=O)c4ccco4)nc3C)cs2)c1,"inconclusive: 5.01 µM [inhibitor, full curve, poor fit]",–
COc1ccc(C(=O)Nc2ccc(N3CCCC3)cc2)cc1Br,–,inactive: -5.44%
O=C(CCc1ccccc1)NNC(=O)CCc1ccccc1,–,inactive: -0.28%
CN(C)Cc1c(O)ccc2[nH]cnc12,"inconclusive: 0.251 µM [inhibitor, full curve, poor fit]",–
CCN(Cc1ccncc1)C(=O)Cc1cccs1,–,inactive: 1.8%
C#CCNC(=O)C1=C[C@@H](c2ccc(C(F)(F)F)cc2)C[C@@H](OCc2ccc(CO)cc2)O1,"inconclusive: 17.8 µM [inhibitor, single point]",–
CCN(CC)S(=O)(=O)c1ccc(OC)c(NS(=O)(=O)c2ccc(F)cc2)c1,"inconclusive: 3.16 µM [inhibitor, partial curve, poor fit]",–

SMILES,Potency,"activity, negative = inhibition"
CN(CC(=O)Nc1ccc(Cl)c(C(F)(F)F)c1)C(=O)CCC(=O)c1ccccc1,"inconclusive: 17.8 µM [inhibitor, partial curve, poor fit]",–
COc1ccc2c(c1)-c1nc(NC(=O)c3ccc(C)cc3)sc1CC2,"inconclusive: 14.1 µM [inhibitor, single point]",–
Cc1ccc(S(=O)(=O)N2CCN(S(=O)(=O)N(C)C)CC2)cc1,"inconclusive: 35.5 µM [inhibitor, partial curve, poor fit]",–
O=C1c2ccccc2C(=O)C1Cc1cccc2ccccc12,–,inactive: 0.0085%
COCCNC(=O)c1cccc(OC2CCN(Cc3ccc(Cl)c(F)c3)CC2)c1,"inconclusive: 7.08 µM [inhibitor, partial curve]",–
CCOc1ccc(-c2cc(NC(=O)c3ccc(C)cc3)c(C(=O)OC)s2)cc1,–,inactive: -1.26%
O=C(c1ccc(Cl)cc1)c1ccc(OCC(O)CN2CCOCC2)cc1 (stereo not drawn),–,inactive: 15.7%
CCCNC(=O)C1(C)CCCN(C(=O)Cc2ccc(OC)c(OC)c2)C1 (stereo not drawn),"inconclusive: 3.16 µM [inhibitor, single point]",–
COC(=O)c1ccc(-c2noc(CN(Cc3ccncc3)CC3CCCO3)n2)cc1 (stereo not drawn),"inconclusive: 11.2 µM [inhibitor, single point]",–
O=C(Nc1ccc(NS(=O)(=O)c2ccccc2)c(Cl)c1)c1ccccc1,–,inactive: 12.3%
COc1cc(Cl)c(NS(=O)(=O)c2ccc(-c3ccc(=O)[nH]n3)o2)c(OC)c1,"inconclusive: 35.5 µM [inhibitor, single point]",–
CC(C)Cc1cc(C(=O)O)n[nH]1,"inconclusive: 0.112 µM [inhibitor, full curve, poor fit]",–
COc1ccc(NC(=O)c2ccc(-c3ccccc3C(F)(F)F)o2)cc1,"inconclusive: 35.5 µM [inhibitor, single point]",–
CCC1CCCCN1C(=O)CSc1nc2c([nH]c3ccccc32)c(=O)n1-c1cccc(OC)c1 (stereo not drawn),"inconclusive: 35.5 µM [inhibitor, single point]",–
COc1cc(NC(=O)c2ccnc(N)c2)cc(C(=O)Nc2cccc(C(F)(F)F)c2)c1,–,inactive: 3.22%
Cc1ccc(-n2ccnc(NCCc3ccc(S(N)(=O)=O)cc3)c2=O)cc1C,"inconclusive: 35.5 µM [inhibitor, single point]",–
CCOc1ccc(/C=N/OCC(=O)NC(c2ccccc2)c2ccccc2)cc1,active: 22.4 µM,–
O=c1cc(-c2ccc(F)cc2)nc(SCc2nc(-c3ccccc3Cl)no2)[nH]1,–,inactive: -24.3%
Cc1c(C)c2ccc(OCC(=O)N3CCN(c4cccc(Cl)c4)CC3)cc2oc1=O,"inconclusive: 22.4 µM [inhibitor, single point]",–
C[C@H]1NC(=O)[C@]2(C)[C@@H](c3ccccc3)[C@H]3COc4ccccc4[C@H]3N2C1=O,–,inactive: 3.2%
Cc1ccc(/C=N/Nc2nc3ccccc3[nH]2)s1,"inconclusive: 22.4 µM [inhibitor, partial curve, poor fit]",–
O=C(OCC(=O)c1c[nH]c2ccccc12)c1ccco1,–,inactive: -14.3%
CC1C(=O)N(Cc2cn(Cc3ccco3)nn2)CCS(=O)(=O)N1Cc1ccc(-c2ccc(Cl)cc2)cc1 (stereo not drawn),"inconclusive: 17.8 µM [inhibitor, partial curve, poor fit]",–

SMILES,Potency,"activity, negative = inhibition"
CCc1ccc(/C=C2\Oc3cc(OC(=O)N4CCOCC4)ccc3C2=O)cc1,–,inactive: 0.872%
CCOC(=O)c1ccc(NC(=O)c2csc3c2CCCCC3)cc1,"inconclusive: 35.5 µM [inhibitor, single point]",–
Cc1ccc2nc(Cl)c(CN(Cc3cccs3)C(=O)C3CC3)cc2c1,"inconclusive: 28.2 µM [inhibitor, single point]",–
Cc1ccc(C(C)C)c(OCCn2ccnc2C)c1,–,inactive: -6.87%
Cc1nn(-c2ccccc2)c(N)c1N=Nc1ccc2ccccc2c1,"inconclusive: 35.5 µM [inhibitor, single point]",–
O=C(NCc1ccc(C(F)(F)F)cc1)c1cccc2c(-c3ccc(F)c(F)c3)coc12,"inconclusive: 35.5 µM [inhibitor, single point]",–
COCCN(C(=O)COC(=O)c1ccco1)c1c(N)n(Cc2ccccc2)c(=O)[nH]c1=O,–,inactive: -5.23%
COc1ccc(OC(C)c2nc3ccccc3[nH]2)cc1 (stereo not drawn),–,inactive: -2.96%
COc1ccccc1/C=C1\SC(=S)N(CCC(=O)NCCc2ccc(O)cc2)C1=O,"inconclusive: 35.5 µM [inhibitor, single point]",–
CC(=O)c1cccc(N=Nc2c(C)[nH]c3ccccc23)c1,–,inactive: -5.81%
O=C(Nc1ccc2oc(-c3cccnc3)nc2c1)c1ccc(-c2ccccc2)o1,"inconclusive: 8.91 µM [inhibitor, partial curve]",–
COc1ccc(NC(=O)CCOc2ccccc2C)cc1S(=O)(=O)N1CCCCC1,–,inactive: -12.8%
COc1cc(/C=N/NC(=O)CN(Cc2ccco2)S(=O)(=O)c2ccccc2)ccc1O,"inconclusive: 6.31 µM [inhibitor, single point]",–
CC(=O)c1cccc(NC(=O)c2cc(-c3ccncc3)nc3ccccc23)c1,–,inactive: -1.15%
Cc1ccc(S(=O)c2ccc([N+](=O)[O-])c3nonc23)cc1 (stereo not drawn),"inconclusive: 35.5 µM [inhibitor, single point]",–
CC[C@]12c3[nH]c4cc(CCC(=O)N(C)C)ccc4c3CCN1C(=O)[C@@H](CC(=O)NCc1ccc(OC)c(OC)c1)C[C@@H]2C(=O)N1CCN(C(=O)C2CC2)CC1,"inconclusive: 2.82 µM [inhibitor, full curve, poor fit]",–
COc1ccc(OCC(=O)Nn2c(-c3ccc(OC)cc3)nc3ccccc3c2=O)cc1,"inconclusive: 0.562 µM [inhibitor, full curve, poor fit]",–
CCc1ccc(CNC(=O)c2ccc3nc(C(C)C)oc3c2)cc1,"inconclusive: 35.5 µM [inhibitor, single point]",–
COc1ccc(NC(=O)C(=O)NCC2CCCN2S(=O)(=O)c2ccc(C)cc2)cc1 (stereo not drawn),"inconclusive: 7.94 µM [inhibitor, partial curve, poor fit]",–
N#Cc1c(Cl)nsc1NCCN1CCOCC1,–,inactive: 0%
COCCC1CCCCN1C(=O)c1cc(COc2cccc(C(C)=O)c2)on1 (stereo not drawn),"inconclusive: 35.5 µM [inhibitor, single point]",–
COC(=O)c1cnc(Nc2nc(C(N)Cc3ccc(OC)cc3)cs2)nc1C(F)(F)F (stereo not drawn),"inconclusive: 35.5 µM [inhibitor, single point]",–
